Hit rate of the full screen: of about 52,000 compounds, about 1,700 (3.3%) were called active. No stated cut-off is given here; in the data, active means survival mostly below about 52% (no sharp cut-off); inactive means mostly above about 56%. This is one part of the list.

The test system of this assay is Wild type. Put plainly: growth inhibition of S. aureus wild type versus tarO mutant, primary screen, teichoic acid synthesis inhibitors, RN4220, OD600 (AID 463173). The following applies: S. aureus RN4220 wild type/DeltatarO growth, OD600, 18 h, active compounds read low, screened at 18.75 µg/mL (by protocol).
Take `Cc1cccc(-n2ncc(C(=O)NCc3ccccn3)c2C2CCN(C(=O)OC(C)(C)C)CC2)c1`: the survival is inactive: 75%.

For the compound `CC1CCCC(C)N1C(=O)c1cc2sccc2n1Cc1ccc(F)cc1` (centres undefined), the survival was inactive: 110%.

Take `COc1ccc(CNc2cc(-c3ccc(OC)cc3)nc3nncn23)cc1`: the survival was inactive: 75%.

`O=C(CSc1nc2c(c(=O)[nH]1)CCCC2)Nc1ccc(Br)cc1`: the survival was inactive: 71%.

On to `Cc1ccc(NC(=O)Cn2c(=O)n(CCC(=O)NCc3ccc4c(c3)OCO4)c(=O)c3sccc32)c(C)c1`, for which the survival was inactive: 96%.

Regarding `Cc1ccc(C)c(N2CCN(c3nc4ccccc4n4c(C)nnc34)CC2)c1`, the survival is inactive: 87%.

As to `Cc1ccc(NC(=O)C(c2ccccc2)N2Cc3ccccc3C2=O)cc1Cl` (centres undefined), the survival is inactive: 83%.

For the compound `Cc1ccccc1Nc1nn2c(=O)c3ccc(C(=O)NCCc4ccc(Cl)cc4)cc3nc2s1`, the survival is inactive: 85%.

Take `Cc1ccc2nc(Cl)c3cc(C(=O)N4CCCCC4C)sc3c2c1` (centres undefined): the survival was inactive: 21%.

Turning to `NC(=O)C1CCN(CC(=O)N2N=CCC2c2ccccc2)CC1` (centres undefined), the survival is inactive: 88%.

Regarding `Cc1ccccc1CNC(=O)c1oc2c(c1C)-c1[nH]ncc1CC2`, the survival is inactive: 89%.

On to `COc1ccc(Cl)cc1NC(=O)CN1C(=O)C(C)(C)c2cc(S(=O)(=O)N3CCCCC3)ccc21`, for which the survival was inactive: 81%.

Regarding `CC(C)C1C(=O)Nc2ccc(S(=O)(=O)NCCc3ccc(Cl)cc3)cc21` (centres undefined), the survival was inactive: 73%.

Regarding `Cc1cccc(-n2ncc(C(=O)N3CCN(c4ccc(C)cc4C)CC3)c2C2CCN(C(=O)OC(C)(C)C)CC2)c1`, the survival was inactive: 93%.

Regarding `Cc1cc(N2CCN(C)CC2)nc2ccc(NC(=O)Nc3cccc(Cl)c3)cc12`, the survival is inactive: 67%.

As to `CCOc1ccc(Nc2c(S(=O)(=O)c3ccc(Cl)cc3)cnc3ccc(OCC)cc23)cc1`, the survival is inactive: 79%.

`CCN1c2ccccc2-c2nc(SCC(=O)NCc3ccc(Cl)cc3)ncc2S1(=O)=O`: the survival was inactive: 64%.

On to `Cc1cn(C)c(CC(=O)NCc2ccccc2)c1C(=O)O`, for which the survival was inactive: 80%.

For `Cc1ccsc1CN(C(=O)c1oc2ccc(Br)cc2c1C)C1CCS(=O)(=O)C1` (centres undefined), the survival was inactive: 70%.

For the compound `CCOc1ccc(CCNC(=O)Cn2nnc(-c3ccccc3Cl)n2)cc1OCC`, the survival was inactive: 74%.

In the case of `Cc1c(C)n(Cc2ccc(F)cc2)c2ccc(C(=O)NCc3ccco3)cc12`, the survival was inactive: 82%.

As for `CSc1ncc(C(=O)N2CCN(c3cccc(Cl)c3)CC2)c(C)n1`, the survival is active: -3%.

Consider `O=C(CC1C(=O)N(c2ccccc2)C(=O)N1CCc1cccs1)Nc1ccc(F)cc1` (centres undefined), for which the survival is inactive: 66%.

For `O=C(CCCn1c(=O)c2cccn2c2cccnc21)NCc1ccccc1Br`, the survival was inactive: 129%.

As to `CSc1nc(-c2ccco2)nn1C(=O)c1ccc(C)cc1`, the survival was inactive: 108%.

`Cc1ccc(CNc2nc(-c3ccco3)nn2S(=O)(=O)c2ccc3ccccc3c2)cc1`: the survival was inactive: 122%.

Consider `O=C(CSc1ncc(-c2ccccc2)[nH]1)Nc1ccc(Cl)cc1`, for which the survival is inactive: 27%.

Consider `O=C(NCCN1CCN(c2cccc(Cl)c2)CC1)Nc1ccccc1C(F)(F)F`, for which the survival is inactive: 120%.

Turning to `CN(C(=O)c1ccco1)c1ccccc1C(=O)O`, the survival was inactive: 108%.

On to `Cc1ccc(S(=O)(=O)Nc2cc3c(cc2NCc2ccccc2)n(C)c(=O)n3C)cc1`, for which the survival is inactive: 76%.

Consider `Cc1ccc2c(c1)c1nnc(SCC(=O)N3CCCCC3C)nc1n2C` (centres undefined), for which the survival was inactive: 108%.

As for `CCOc1cc(NC(=S)NCCCN2CCOCC2)c(OCC)cc1NC(=O)C1CC1`, the survival was inactive: 112%.

Turning to `CCOC(=O)c1sc2ccccc2c1S(=O)(=O)N1CCN(c2cccc(C)c2)C(C)C1` (centres undefined), the survival is inactive: 76%.

Take `COc1ccc2c(c1)CC(C(=O)NCCCN1CCN(c3cccc(Cl)c3)CC1)CO2` (centres undefined): the survival is inactive: 89%.

Consider `O=C(Cn1c(=O)nc(-c2ccccc2)c2cc(Cl)ccc21)N1CCN(c2ccccc2F)CC1`, for which the survival was inactive: 69%.

For the compound `COc1ccc(CCNC(=O)c2cnn(-c3cccc(C)c3)c2C2CCN(C(=O)OC(C)(C)C)CC2)cc1OC`, the survival is inactive: 76%.

Regarding `CC(C)COc1ccc(C(=O)N2CCCCC2CCN2CCCCC2)cc1` (centres undefined), the survival is inactive: 83%.

As to `Cc1cc(NC(=O)CSc2nc(C3CCCCC3)nc3sc(C)c(C)c23)no1`, the survival was inactive: 104%.

On to `COc1cccc2c1ncc1c(-c3ccc(C)cc3)nn(-c3ccc(F)cc3)c12`, for which the survival is inactive: 66%.

`Cc1cccc(-c2nnn3c2nc(NCc2ccc4c(c2)OCO4)c2ccccc23)c1`: the survival was inactive: 102%.

For the compound `CC1Cc2ccccc2N1C(=O)CSc1nnc(CSc2ncccn2)n1C` (centres undefined), the survival is inactive: 105%.

`COc1ccc(OCC(=O)NCCO)cc1`: the survival was inactive: 116%.

On to `CC(=O)c1ccc(NC(=O)c2noc3c2CSc2ccccc2-3)cc1`, for which the survival was inactive: 76%.

With `CN(C)c1ccc(-c2cc(-c3ccccc3)c(C#N)c(N)n2)cc1`, the survival is inactive: 108%.

Turning to `CC1CCc2sc3ncnc(NCCCN(C)C)c3c2C1` (centres undefined), the survival is inactive: 110%.

As for `CCc1cc(C(=O)Nc2sc(C)c(CC)c2C#N)no1`, the survival is inactive: 59%.

Take `CCc1ccc(CN2CCc3nc(N4CCN(c5ccccc5F)CC4)ncc3C2)cc1`: the survival is inactive: 53%.

As to `CCCCOc1cccc(C(=O)Nc2cc(NC(=O)c3ccco3)ccc2OC)c1`, the survival is inactive: 29%.

For `Cc1ccc(Cl)cc1N1CCN(C(=O)c2c(C)oc3ncnc(N4CCCCC4)c23)CC1`, the survival is active: -6%.

As for `Cc1ccc2c(c1)-c1c(cnc3cc(-c4ccc(F)cc4)nn13)CO2`, the survival was inactive: 83%.

On to `CCc1ccc(C2=C(C)C(N3CCC(C(=O)NCc4ccccc4)CC3)=NS2(=O)=O)cc1`, for which the survival was inactive: 67%.

Take `Cc1ccc(CNC(=O)c2c(O)nc3cc(C)ccn3c2=O)cc1`: the survival is inactive: 88%.

Regarding `COc1ccc(-c2cnc(C)o2)cc1S(=O)(=O)Nc1c(C)cc(C)cc1C`, the survival is inactive: 78%.

In the case of `CC(c1ccccc1)n1cc2c(c1-c1ccccc1Br)c(=O)n(C)c(=O)n2C` (centres undefined), the survival was inactive: 87%.

For `CCC(CC)N1CCN(S(=O)(=O)CC)CC1`, the survival is inactive: 95%.

For `COc1cccc(NC(=O)CCc2c(C)nc3nc(CNC(=O)c4cccc(F)c4)nn3c2C)c1`, the survival was inactive: 99%.

On to `C#CCOc1ccc(-c2nnc(Nc3ccc(NC(C)=O)cc3)c3ccccc23)cc1`, for which the survival was inactive: 80%.

Regarding `Cc1oc2ccc(O)c(CN3CCCC3)c2c1C(=O)Nc1ccc(C(C)C)cc1`, the survival was inactive: 85%.

Take `CCSC1=C(C#N)C2(CCCCC2)C(C#N)=C(N)N1`: the survival was inactive: 120%.

Turning to `Cc1c(Cl)cccc1NC(=O)C1CCCN(c2ncnc3onc(C)c23)C1` (centres undefined), the survival was inactive: 60%.

As to `CCOC(=O)N1CCC(NC(=O)c2cnn(-c3cccc(F)c3)c2-n2cccc2)CC1`, the survival was inactive: 69%.

For `O=c1c2ccccc2nc2n1CCN2`, the survival is inactive: 116%.

On to `O=C(NCc1ccccc1Cl)c1ccc2c(c1)N(Cc1ccccc1)C(=O)CS2`, for which the survival was inactive: 78%.

On to `NS(=O)(=O)c1ccc(CCNc2ncnc3c2cnn3-c2cccc(Cl)c2)cc1`, for which the survival is inactive: 74%.

Turning to `Cc1ccc(Cl)cc1N1CCN(C(=O)c2ccc3c(c2)CCN3S(=O)(=O)c2ccccc2)CC1`, the survival was inactive: 90%.

For the compound `Cc1ccc(-c2nnc(Nc3cccc(O)c3)c3ccccc23)cc1S(=O)(=O)NCC1CCCO1` (centres undefined), the survival is inactive: 59%.

On to `COc1ccc(CCC(=O)NCc2nc3cccnc3n2Cc2ccc(F)cc2)cc1`, for which the survival was inactive: 123%.

With `CC1CCN(S(=O)(=O)c2ccc3c(c2)c(=O)c(C(=O)NC(C)c2ccccc2)cn3C)CC1` (centres undefined), the survival is inactive: 79%.

`CN(CC(=O)Nc1ccccc1F)S(=O)(=O)c1ccc2c(c1)c(=O)n(C)c(=O)n2C`: the survival is inactive: 132%.

For `O=C(NCCc1ccccc1)c1ccc2c(c1)N(Cc1ccccc1)C(=O)c1ccccc1S2(=O)=O`, the survival is inactive: 93%.

`CCc1ccc(N2CCN(S(=O)(=O)N(C)C)CC2)cc1`: the survival was inactive: 119%.

Turning to `COc1ccc(CNC(=O)c2cc(=O)[nH]c3ccc(S(=O)(=O)N4CCCC4)cc23)c(OC)c1`, the survival is inactive: 60%.

For the compound `O=C(NCCc1ccccc1)C1CCN(Cc2cc3ccccc3n2Cc2cccc(Cl)c2)CC1`, the survival was inactive: 66%.

With `CC(=O)c1cccc(NC(=O)C(CC(C)C)NS(=O)(=O)c2ccc3c(c2)CCN3C(C)=O)c1` (centres undefined), the survival was inactive: 117%.

As for `CCN(CC)S(=O)(=O)c1cccc2nsnc12`, the survival was inactive: 101%.

Regarding `CCOC(=O)CN(Cc1ccccc1)C(C(=O)NC1CCCCC1)c1ccc(OC)cc1` (centres undefined), the survival is inactive: 20%.

For `COc1cccc(Nc2sc(C(=O)c3ccc(Cl)cc3)c(N)c2C(=O)NCc2ccc(C)cc2)c1`, the survival is inactive: 76%.

With `COc1ccc(Cl)cc1NC(=O)c1ccc2c(c1)CCN2S(C)(=O)=O`, the survival was inactive: 96%.

For the compound `Cc1cc(NC(=O)CSc2nc(-c3ccccc3C)nc3c2c(=O)n(C)c(=O)n3C)no1`, the survival was inactive: 60%.

In the case of `CCOc1cc(C(=O)Nc2cccc3cccnc23)cc(OCC)c1OCC`, the survival is inactive: 23%.

`Cc1ccc(Nc2nc3ccccc3c3nnc(C)n23)c(C)c1`: the survival is inactive: 79%.

`COc1ccc(-c2cc3nc(C)c(CCC(=O)N4CCN(c5ccc(F)cc5)CC4)c(C)n3n2)c(OC)c1`: the survival is inactive: 85%.

As to `CCCCN(CCCC)CCNC(=O)CN1C(=O)CSc2ccc(S(=O)(=O)N3CCOCC3)cc21`, the survival is inactive: 69%.

On to `COc1ccccc1OCC(=O)NC1CC(=O)N(c2ccc3c(c2)OCCO3)C1` (centres undefined), for which the survival was inactive: 74%.

As to `CC(=O)c1cccc(Nc2cc(C)nc3nc(Cc4ccccc4)nn23)c1`, the survival was inactive: 80%.

Turning to `COc1ccc(NC(=O)c2c(C)oc3ccc(O)c(CN4CCN(Cc5ccccc5)CC4)c23)cc1Cl`, the survival is inactive: 50%.

Regarding `CCCOc1ccc(CNC(=O)c2ccc(C)c(-n3c(C)nc4cccnc43)c2)cc1`, the survival was inactive: 74%.

As to `Cc1oc2ncn(C)c(=O)c2c1C(=O)NCCCN1CCCCC1C` (centres undefined), the survival is inactive: 82%.

For `CC(=O)c1cc(-c2ccc(F)cc2)n(CC(=O)NC2CCC(C)CC2)c1C` (centres undefined), the survival was inactive: 60%.

Source of the values: PubChem BioAssay AID463173 (ICCB-Longwood Screening Facility, Harvard Medical School, 2010).
